4 molecules from PubChem BioAssay AID1919006 (Molecular Pharmacology Branch, DTP, NCI, 2023) can be followed below.

For part of its entries the source gives two or more results. Only these are listed. There may be further records. The records of an entry are repeats (runs, samples, wells, individuals or studies). Brackets with × count equal records among those shown.

The test relates to 885512-296-R-J2-PDC complex spheroid growth, % test/control. Briefly: Anticancer human tumor 885512-296-R-J2-PDC patient-derived breast carcinoma cell line growth inhibition [AhR]. The note with it: for IC50: compound alone; for viability, T/C: stronger effect = lower value. The text has this: Multicellular complex tumor spheroid response to aryl hydrocarbon receptor antagonists in combination with a variety of drugs and investigational agents in selected tumor cell lines
The current study was undertaken to assess response to aryl hydrocarbon receptor antagonists in combination with standard-of-care drugs and investigational agents in solid tumor complex spheroid models. Complex spheroids include a stromal component modeled by human endothelial cells (HUVEC) and fibroblasts modeled by human mesenchymal stem cells (MSCs). The concentration ranges selected for each drug and investigational agent were based upon clinically achievable concentrations if the clinical Cmax of the agent was known.
Compounds. The drugs and investigational agents: BAY 2416964 (NSC825713), GNF351 (NSC835774), CH-223191 (NSC835775), CPI-455 (NSC825282), aza-TdCyd (NSC777586), decitabine (NSC127716), belinostat (NSC758774), entinostat (NSC756642), pevonedistat (NSC761192), tazemetostat (NSC777109), talazoparib (NSC765396), olaparib (NSC753686), selinexor (NSC780203), nedisertib (M3814, NSC802822), bortezomib (NSC756655), venetoclax (NSC766270), doxorubicin (NSC123127), elimusertib (BAY189344, NSC800525), ceralasertib (AZD6738, NSC777638), TAK-243 (NSC785004), alisertib (NSC759677), etoposide (NSC141540), topotecan (NSC609699), eribulin (NSC707389), gemcitabine (NSC613327), carboplatin (NSC241240), cisplatin (NSC119875), and SN-38 (NSC673596) were obtained from the National Cancer Institute (NCI) Developmental Therapeutics Program Chemical Repository (32). The FDA-approved anticancer drug set is available from the Developmental Therapeutics Program at https://dtp.cancer.gov/organization/dscb/obtaining/available plates.htm. […] The stock solutions were prepared in dimethyl sulfoxide (DMSO, Sigma-Aldrich, St. Louis, MO, cat. D2650), except for the platinum compounds which were prepared in saline (Quality Biological, Gaithersburg, MD, cat. 114-055-101), at 800-fold the tested concentration and stored at -70 degrees C prior to their use. All drugs and investigational agents were tested over a range starting from a high concentration at or near the clinical Cmax and decreasing in half-log increments. If the clinical Cmax for an agent had not been determined, the highest concentration tested was 10 microM (Table 1).
Cell Culture. All cells were maintained in an incubator at 37 degrees C and 5% CO2 with 95% humidity. The PDC lines were cultured according to standard operating procedures established by the NCI PDMR (https://pdmr.cancer.gov). Briefly, all PDCs were thawed and cultured in Matrigel-coated flasks prepared with a working solution of 1X Ham's F-12 nutrient mix, without supplementation (Invitrogen, Waltham, MA, cat. 11765054), 100 U/mL penicillin-streptomycin (Invitrogen, cat. 15140122), and 2.5% Matrigel (Corning Inc., Corning, NY, cat. 354248) for the first three passages. All PDCs were cultured in complete DMEM/F-12 media containing advanced DMEM/F-12 (Invitrogen, cat. 12634028), 4.9% defined fetal bovine serum, heat inactivated (HyClone Laboratories Inc., Logan, UT, cat. SH30070.03HI), 389 ng/mL hydrocortisone (Sigma-Aldrich, cat. H4001), 9.7 ng/mL human EGF recombinant protein (Invitrogen, cat. PHG0313), 23.4 microg/mL adenine (Sigma-Aldrich, cat. A2786), 97.3 U/mL penicillin-streptomycin (Invitrogen, cat. 15140122), 1.9 mM L-glutamine (Invitrogen, cat. 25030081), and 9.7 microM Y-27632 dihydrochloride (Tocris Bioscience, Bristol, United Kingdom, cat. 1254). The PDCs were cultured in complete DMEM/F12 media without 10 microM Y-27632 dihydrochloride for at least two passages prior to the screen. The established cell lines NCI-H1341 and […] were cultured in DMEM/F-12, HEPES (Invitrogen, cat. 11330032), 5% defined fetal bovine serum (HyClone Laboratories Inc., cat. SH30070.03), ITS premix universal culture supplement [insulin (5 microg/mL), transferrin (5 microg/mL), and selenious acid (5 ng/mL)] […]

In general, IC50 refers to the point on the concentration scale where inhibition reaches its midpoint.
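Further: spheroids exposed to compounds for seven days.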

In the case of `COc1cc(Nc2ncc3c(n2)-c2ccc(Cl)cc2C(c2c(F)cccc2OC)=NC3)ccc1C(=O)O`, the IC50 is 39.4 nM, 52.3 nM, 3.86 µM.

As for `CC(CO)NC(=O)c1cc(-c2ccc(Cl)cc2)nn(-c2cnn(C)c2)c1=O` (stereo not given), the viability, T/C was 105, 91.7, 103 (2×), 97, 102, 97.8, 99.2, 95.4, 85.8, 99.1, 84.2, 96.1, 104 (2×), 95.1, 96.3, 111, 90.3, 90.5, 106% (compound alone 0.1 µM) and 105 (2×), 115, 82.6, 102, 106, 83.6, 97.4, 93.1, 95.4, 101, 98.4, 92.5, 104, 99, 90.9, 100, 96% (compound alone 3.16 µM).

For `Cc1cncc(-c2nc(NCCc3c[nH]c4ccccc34)c3ncn(C(C)C)c3n2)c1`, the viability, T/C reads like this: (compound alone 0.316 µM) 98, 121, 103, 101, 95.7 (2×), 100, 92.9, 113 (2×), 122, 92.6, 104, 106 (2×), 114, 109, 93.4, 91.8, 91.6%; (compound alone 1 µM) 99.2, 95.9, 93.6, 81.3, 85.8, 82.2, 79.9, 85.5, 99.9, 96.6, 90.5, 96.8, 77.1, 103, 83.7, 89.7 (2×), 88, 67.1, 81.7%.

Take `Cc1ccccc1N=Nc1ccc(NC(=O)c2ccnn2C)c(C)c1`: the viability, T/C is 108 (2×), 103, 101, 98.4, 113 (2×), 136, 99.7, 114, 105, 100, 95.2, 99, 91, 112, 111, 97.5, 106% (compound alone 0.1 µM); 104, 106 (2×), 107, 95.9, 109, 116, 113 (2×), 126, 118, 117 (2×), 97.6, 96.7, 123, 98.7, 114, 90.8, 105% (compound alone 0.316 µM); 98.3, 109, 104 (2×), 102 (3×), 105 (2×), 107, 108, 110, 97.7, 96.2, 101, 116, 87.7, 96.4, 112, 103% (compound alone 1 µM); 83, 93.7, 84.3, 80.3, 81.9, 95.1, 103, 110, 78.4, 87.6, 79.1, 83.2, 79, 97.5, 96.6, 81.1, 96.2, 92, 94.2, 87.3% (compound alone 3.16 µM). Moreover, the IC50 (run of 08/22/2022) is recorded as > 10 µM, 9.3 µM, 9.82 µM, 9.9 µM, 8.77 µM, 9.61 µM, 9.7 µM, 8.3 µM, 9.23 µM, 9.88 µM.
